According to article PMC4336329 (PLoS ONE, 2015):
Out of some 310,000 compounds screened, about 14,000 (4.5%) showed an effect of 50% or more. Effects have a minus sign here. The list shows a part of the results.

Biological target: human ether-à-go-go-related gene (hERG) potassium channel (human, UniProt Q12809)
Assay: primary screen, population patch clamp on CHO cells stably expressing hERG
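Further: peak tail current of the secondary pulse compared with the same well before compound.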

Chain of human ether-à-go-go-related gene (hERG) potassium channel (Q12809 whole entry, looked up): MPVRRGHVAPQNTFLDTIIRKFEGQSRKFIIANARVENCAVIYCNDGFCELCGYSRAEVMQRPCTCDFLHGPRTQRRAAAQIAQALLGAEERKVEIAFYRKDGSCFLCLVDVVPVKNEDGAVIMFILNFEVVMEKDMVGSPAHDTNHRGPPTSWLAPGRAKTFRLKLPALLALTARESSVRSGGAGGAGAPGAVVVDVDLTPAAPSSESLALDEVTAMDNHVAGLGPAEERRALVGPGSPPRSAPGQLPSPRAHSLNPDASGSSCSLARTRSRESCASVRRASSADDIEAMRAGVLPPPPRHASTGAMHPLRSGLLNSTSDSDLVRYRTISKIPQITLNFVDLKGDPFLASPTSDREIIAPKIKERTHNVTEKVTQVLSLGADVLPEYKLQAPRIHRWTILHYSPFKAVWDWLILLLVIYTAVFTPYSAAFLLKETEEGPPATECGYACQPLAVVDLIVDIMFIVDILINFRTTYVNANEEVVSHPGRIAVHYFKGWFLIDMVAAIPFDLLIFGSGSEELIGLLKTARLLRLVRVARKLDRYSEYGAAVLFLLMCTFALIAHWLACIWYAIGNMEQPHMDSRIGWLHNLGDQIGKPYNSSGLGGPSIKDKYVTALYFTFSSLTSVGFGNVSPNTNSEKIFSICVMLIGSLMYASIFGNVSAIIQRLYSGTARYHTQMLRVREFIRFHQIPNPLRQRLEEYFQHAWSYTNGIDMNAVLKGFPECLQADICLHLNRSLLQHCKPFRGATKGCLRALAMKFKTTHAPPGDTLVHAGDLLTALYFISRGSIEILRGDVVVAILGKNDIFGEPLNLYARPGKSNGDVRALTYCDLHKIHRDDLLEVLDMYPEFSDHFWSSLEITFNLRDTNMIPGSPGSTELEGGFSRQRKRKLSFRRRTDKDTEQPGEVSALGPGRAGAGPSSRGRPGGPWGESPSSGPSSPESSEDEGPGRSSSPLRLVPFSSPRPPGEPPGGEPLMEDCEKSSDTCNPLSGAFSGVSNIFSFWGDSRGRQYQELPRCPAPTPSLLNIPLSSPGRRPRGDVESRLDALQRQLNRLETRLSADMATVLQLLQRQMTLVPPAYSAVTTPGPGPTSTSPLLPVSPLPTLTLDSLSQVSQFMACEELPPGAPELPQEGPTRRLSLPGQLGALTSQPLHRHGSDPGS

SMILES | hERG current change (%, negative = inhibition) at 10uM [%]
COC(=O)c1ccc(C2c3[nH]c4ccccc4c3C[C@H]3C(=O)N(C)CC(=O)N23)cc1 (stereo partly shown) | 0.396
Cc1noc(C)c1C(=O)Nc1nc2ccc(S(C)(=O)=O)cc2s1 | 2.86
CCN(CC)CCNC(=O)c1ccc(NC(=O)Cc2ccccc2F)cc1 | -6.75
CCNc1oc(COc2ccccc2F)nc1C#N | 7.7
N/C(=N\N=C/c1ccc(-c2ccc(O)c(C(=O)O)c2)o1)N[N+](=O)[O-] | 12.7
CCC(NC(=O)NCc1cccnc1)(C(F)(F)F)C(F)(F)F | 5.9
C/C(Cl)=C\Cn1c(O)c(N=NC(N)=S)c2ccccc21 | -11.2
COC(=O)c1ccc(NC(=S)Nc2ccc(O)cc2)cc1 | 22.9
CSc1ncccc1C(=O)Nc1ccc2nc(C)sc2c1 | -0.421
FC(F)(F)c1nnc2ccc(-n3ccnc3)nn12 | 10.1
CCOC(=O)C1=C(C)N=c2s/c(=C\c3ccc(C(=O)O)cc3)c(=O)n2C1c1ccc(F)cc1 (stereo not shown) | -45.8
O=C(CCS(=O)(=O)c1ccc(Br)s1)NCc1cccs1 | -4.96
CN1CC(=O)N(CC(=O)Nc2cccc(S(=O)(=O)N3CCOCC3)c2)C1=O | 14.4
Cc1nnsc1C(=O)NC1CCCc2c1cnn2-c1ccc(C(C)(C)C)cc1 (stereo not shown) | -16.2
COc1ccc(-n2c(=O)c3ccccc3n(CC(=O)Nc3cccc(OC)c3)c2=O)cc1 | 10.3
Cc1cc(NC(=O)CSc2nccn2-c2ccc(Cl)cc2)no1 | -3.34
CCc1nc(SCC(=O)Nc2ccc(F)cc2)c2c(=O)n(C)c(=O)n(C)c2n1 | -20.1
COc1cc(OC)cc(C(=O)Nc2nnc(Cc3ccc(OC)c(OC)c3)s2)c1 | 16.3
COCCSc1nnc(NC(=O)CCS(=O)(=O)c2ccccc2)s1 | 20.7
COc1ccccc1N(CC(O)COc1c(C)cc(C)cc1C)S(=O)(=O)c1ccccc1 (stereo not shown) | -0.161
CC(CNC(=O)CCCn1ncn2c(cc3occc32)c1=O)c1ccccc1 (stereo not shown) | -6.77
COc1cc(/C=C2\C(=O)N(CCC#N)N=C2C)c(Br)cc1OC(C)C | 3.15

SMILES | hERG current change (%, negative = inhibition) at 10uM [%]
COC(=O)c1ccc(Oc2ccc3nnc(C)n3n2)cc1 | -1.43
Cc1ccc(S(=O)(=O)Nc2cc(C(F)(F)F)ccc2N2CCOCC2)cc1C | 2.05
Cc1ccc(S(=O)(=O)Nc2c(C)nc3nc[nH]n3c2=O)c(C)c1 | 29.1
C=CCn1c(-c2cc(Cl)ccc2OC)n[nH]c1=S | 6.88
C/C(=N\N=C1/SC(CC(=O)O)C(=O)N1c1ccccc1)c1ccc(C)cc1 (stereo not shown) | 21.9
Nc1nc(Cn2nnc(-c3ccccc3Cl)n2)nc(N2CCOCC2)n1 | -54.4
CCOc1cc(C(=O)OCC(=O)Nc2c(C)cccc2C)ccc1OCC(=O)N1CCOCC1 | 4.3
CCN1CCN(CCc2nc3cc(NC(=O)COc4ccc(Cl)cc4)ccc3n2C)CC1 | -67.6
CCOC(=O)C1(CC2CCCCO2)CCN(Cc2nc3ccccc3nc2C)CC1 (stereo not shown) | -21.2
NS(=O)(=O)c1ccc(N2CCCCCC2)c([N+](=O)[O-])c1 | 4.9
CC(C)C(CCN1C(=O)CCC1=O)C1CCOC(C)(C)C1 (stereo not shown) | 4.36
COc1cc2c(cc1OC)C(c1cccc(F)c1)CC(=O)N2 (stereo not shown) | -0.986
CC(=O)n1c(C=Nc2ccccc2)c(O)c2ccccc21 | 7.78
Cc1cc(-c2ccccc2)cc(C)[n+]1Cc1ccccc1.[O-][Cl+3]([O-])([O-])[O-] | 5.38
COC(=O)CCCC1=CC2=C(c3ccccc3)C(=O)C(C)(OC(=O)C3CCCC3)C(=O)C2=CN1CCCCO (stereo not shown) | 20.5
Nc1cc2ccccc2oc1=O | 8.37
Cc1ccc(S(=O)(=O)N2CCCCC2)cc1NC(=O)Cn1c(=O)cnc2ccccc21 | 9.61
CCOCCCNC(=O)CN1C(=O)COc2ccc(S(=O)(=O)N3CCCCCC3)cc21 | 20.6
CN(C)c1cc(C(F)(F)F)nc(-c2ccccn2)n1 | -0.728
CC(C)CC(=O)NC(=S)Nc1ccc(N2CCOCC2)c(Cl)c1 | 3.67
C1CCN(Cc2nnnn2C2CCCC2)CC1 | 11.4
NS(=O)(=O)c1ccc(NCc2ccccc2OCc2ccccc2F)cc1 | -2.39

SMILES | hERG current change (%, negative = inhibition) at 10uM [%]
c1ccc(-c2nnc3ccc(N4CCCC4)nn23)cc1 | 7.51
Cc1ccc(NC(=O)NCc2ccc3c(c2)OCO3)cc1C | -36.1
NC(=O)C1CCN(CCC(=O)Nc2ccc3c(c2)CCC3)CC1 | -19.6
Cc1cc(S(=O)(=O)N2CCCC2)ccc1OCC(=O)NCc1ccccc1 | -11.8
Cc1ccc2c(c1)oc(=O)n2CC(=O)c1ccccc1 | 1.58
Cc1ccsc1C1C(C#N)=C(N)OC2=C1C(=O)CC(C)C2 (stereo not shown) | -31.9
CCOC(=O)c1c(C)c(C(=O)NCCc2ccccc2)c(C)n1C | 1.27
COc1ccccc1OCCCC(=O)Nc1ccc(N2CCOCC2)cc1 | 12
O=C(CCl)Nc1ccc(Oc2cnc3ccccc3n2)cc1 | 3.17
COc1ccc(C2C(C(=O)OC(C)C)=C(C)N=c3s/c(=C\c4cccs4)c(=O)n32)cc1 (stereo not shown) | 10.5
CC(=O)N1CCOc2ccc(S(=O)(=O)NCC3CCC(C(=O)Nc4ncccc4C)CC3)cc21 (stereo not shown) | -6.23
O=C(/C=C/c1ccc(OC(F)F)cc1)OCC(=O)N1CCc2ccccc21 | 12.7
CC(C)/C=N/Nc1nc(-c2ccc(Br)cc2)cs1 | -24.8
CC1(c2ccc3ccccc3c2)NC(=O)N(CC(=O)NCC(C)(C)N2CCOCC2)C1=O (stereo not shown) | -9.02
O=C(NNS(=O)(=O)c1ccc2ccccc2c1)C1CCN(Cc2ccccc2)CC1 | -44.8
COc1ccc(NS(=O)(=O)NC(=O)c2cn(C)c3ccccc23)cc1 | 20
O=C(COC(=O)C1CC1)Nc1ccccc1Sc1ccccc1 | -18.1
N#CC(=NCc1cccnc1)C1=C(O)c2ccccc2C1=O | 1.89
COc1ccc(-c2nnc(-c3cccnc3)o2)cc1 | -0.347
CCc1nnc(NC(=O)C2CC(=O)N(c3ccc4c(c3)OCCO4)C2)s1 (stereo not shown) | 4.32
Cc1ccc(SCc2[nH]nc3c2C(c2cccnc2)C(C#N)=C(N)O3)cc1 (stereo not shown) | -2.64
S=C(Nc1ccc(Cl)cc1)N(CCCN1CCOCC1)Cc1ccco1 | -26

SMILES | hERG current change (%, negative = inhibition) at 10uM [%]
COc1ccc(NC(=O)CCC(=O)Nc2nnc(C3CCCCC3)s2)cc1 | 19.2
CN(Cc1ccc(F)cc1)C(=O)c1ccc(NC(=O)CC2SC(N3CCCC3)=NC2=O)cc1 (stereo not shown) | 4.32
CNS(=O)(=O)c1cn(CC(=O)NCc2ccccc2OC)cc1S(=O)(=O)NC | 20.5
COCCCNC(=O)c1c[nH]c2ccc(S(=O)(=O)N3CCC(C)CC3)cc2c1=O | 6.48
CCOc1ccccc1NC(=O)N1C2CCCC1CC(NC(=O)C1CC1)C2 (stereo not shown) | 13.6
O=C(Nc1cccc(-c2cc3ccccc3oc2=O)c1)c1ccc(Br)o1 | -1.01
O=C(Nc1ccc(S(=O)(=O)N2CCCC2)cc1)c1ccc(CN2CCOCC2)cc1 | -5.12
CCCCc1nc2sc3c(=O)[nH]cnc3c2c2c1CCCC2 | 2.65
O=C1CCCN1c1ccc(S(=O)(=O)N2CCN(c3ccccc3)CC2)cc1 | 16.3
CNc1ccc(/C=C(\CCC(=O)O)c2nc3ccccc3s2)cc1[N+](=O)[O-] | 0.0204
Cc1ccc2nc(NC(=O)Cn3nc(C)c([N+](=O)[O-])c3C)sc2c1 | -23.5
O=C(Nc1nc(-c2cccnc2)cs1)c1ccccc1F | 20.3
O=C(NCC1CCCO1)C1CC(=O)N(c2ccc(Cl)cc2)C1 (stereo not shown) | -7.51
Cc1sc(NC(=O)/C=C/c2ccc3c(c2)OCO3)nc1-c1ccccc1 | 8.5
C/C(=N\NC(=O)c1ccc2c(c1)OCO2)c1ccc(NS(C)(=O)=O)cc1 | -27.5
O=C(CCNC(=O)c1ccc([N+](=O)[O-])cc1)Nc1ccc(F)cc1F | -29.7
Cc1cc2ccccc2n1CCNC(=O)C(C)(C)C | 11.7
Cc1cccc(N(CC(=O)O)CC(=O)O)c1 | -3.01
Cc1ccc(NC(=O)CN(C)C(=O)c2cccc(S(=O)(=O)NCc3cccs3)c2)cc1 | -18.5
CCOC1Cc2ccccc2N(C(N)=O)c2ccccc21 (stereo not shown) | 13.5
Cc1nnsc1C(=O)Nc1cc(Cl)ccc1Cl | 9.8
CN1CCN(CC(O)COCc2ccc3c(c2)OCO3)CC1.Cl (stereo not shown) | 6.52
